# Reference: the supplement of paper PMC8728848
# Some of the results follow.
# B1: F17-L (Escherichia coli) (protein)
# chain: GPDDYVPSQIAVNTSTLPGVVIGPADAHTYPRVIGELAGTSNQYVFNGGAIALMRGKFTPALPKIGSITYTFHQGNSRDSSDFDIYDIGVSGLGIIIGMAGYWPATPLVPINSSGIYIDPVGANTNPNTYNGATASFGARLFVAFVATGRLPNGYITIPTRQLGTILLEAKRTSLNNKGLTAPVMLNGGRIQVQSQTHHHHHH
# Columns and labels:
# Experiment in all cases: glycan array binding signal (z-score within array); higher = stronger binding
# Conditions in all cases: glycan notation: IUPAC condensed, linker removed
# Gal(b1-3)GlcNAc6S = biological target: Gal(b1-3)GlcNAc6S
# Outline: (§1)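 Glycan array binding is given as a within-array Z-score, which can be read as non-binding when negative. The arrays, 3228 of them, came from the Consortium for Functional Glycomics database and were retained only where the protein sequence was available. Z-scores were averaged across arrays of the same protein sequence at different concentrations or buffers and across linkers.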
# [1] = biological target: Gal(b1-3)[Fuc(a1-4)]GlcNAc
# Outline: as §1
# [2] = biological target: Gal(b1-3)[Fuc(a1-4)]GlcNAc(b1-2)Man
# Outline: as §1
# [3] = biological target: Gal(b1-3)[Fuc(a1-4)]GlcNAc(b1-2)Man(a1-3)[Gal(b1-3)[Fuc(a1-4)]GlcNAc(b1-2)Man(a1-6)]Man(b1-4)GlcNAc(b1-4)[Fuc(a1-6)]GlcNAc
# Outline: as §1
# [4] = biological target: Gal(b1-3)[Fuc(a1-4)]GlcNAc(b1-3)Gal(b1-3)[Fuc(a1-4)]GlcNAc
# Outline: as §1
# [5] = biological target: Gal(b1-3)[Fuc(a1-4)]GlcNAc(b1-3)Gal(b1-4)[Fuc(a1-3)]GlcNAc
# Outline: as §1
# [6] = biological target: Gal(b1-3)[Fuc(a1-4)]GlcNAc(b1-6)GalNAc
# Outline: as §1
# [7] = biological target: Gal(b1-3)[GlcNAc(b1-6)]GalNAc
# Outline: as §1
# [8] = biological target: Gal(b1-3)[Neu5Ac(a2-6)]GalNAc
# Outline: as §1
# [9] = biological target: Gal(b1-3)[Neu5Ac(a2-6)]GlcNAc(b1-4)Gal(b1-4)Glc
# Outline: as §1
# [10] = biological target: Gal(b1-3)[Neu5Ac(b2-6)]GalNAc
# Outline: as §1
# Gal(b1-4)Gal = biological target: Gal(b1-4)Gal
# Outline: as §1
# [11] = biological target: Gal(b1-4)GalNAc(a1-3)[Fuc(a1-2)]Gal(b1-4)GlcNAc
# Outline: as §1
# [12] = biological target: Gal(b1-4)GalNAc(b1-3)[Fuc(a1-2)]Gal(b1-4)GlcNAc
# Outline: as §1
# Gal(b1-4)Glc = biological target: Gal(b1-4)Glc
# Outline: as §1
# Gal(b1-4)Glc6S = biological target: Gal(b1-4)Glc6S
# Outline: as §1
# Gal(b1-4)GlcNAc = biological target: Gal(b1-4)GlcNAc
# Outline: as §1
# [13] = biological target: Gal(b1-4)GlcNAc(a1-6)Gal(b1-4)GlcNAc
# Outline: as §1
# Gal(b1-4)GlcNAc(b1-2)Man = biological target: Gal(b1-4)GlcNAc(b1-2)Man
# Outline: as §1
# [14] = biological target: Gal(b1-4)GlcNAc(b1-2)Man(a1-3)Man(b1-4)GlcNAc(b1-4)GlcNAc
# Outline: as §1
# [15] = biological target: Gal(b1-4)GlcNAc(b1-2)Man(a1-3)[Gal(b1-4)GlcNAc(b1-2)Man(a1-6)]Man(b1-4)GlcNAc(b1-4)GlcNAc
# Outline: as §1
# [16] = biological target: Gal(b1-4)GlcNAc(b1-2)Man(a1-3)[Gal(b1-4)GlcNAc(b1-2)Man(a1-6)]Man(b1-4)GlcNAc(b1-4)[Fuc(a1-6)]GlcNAc
# Outline: as §1
# [17] = biological target: Gal(b1-4)GlcNAc(b1-2)Man(a1-3)[Gal(b1-4)GlcNAc(b1-2)Man(a1-6)][Gal(b1-4)GlcNAc(b1-4)]Man(b1-4)GlcNAc(b1-4)[Fuc(a1-6)]GlcNAc
# Outline: as §1
# [18] = biological target: Gal(b1-4)GlcNAc(b1-2)Man(a1-3)[Gal(b1-4)GlcNAc(b1-2)Man(a1-6)][GlcNAc(b1-4)]Man(b1-4)GlcNAc(b1-4)[Fuc(a1-6)]GlcNAc
# Outline: as §1
# [19] = biological target: Gal(b1-4)GlcNAc(b1-2)Man(a1-3)[GlcNAc(b1-2)Man(a1-6)]Man(b1-4)GlcNAc(b1-4)GlcNAc
# Outline: as §1
# [20] = biological target: Gal(b1-4)GlcNAc(b1-2)Man(a1-3)[GlcNAc(b1-4)][Gal(b1-4)GlcNAc(b1-2)Man(a1-6)]Man(b1-4)GlcNAc(b1-4)GlcNAc
# Outline: as §1
# [21] = biological target: Gal(b1-4)GlcNAc(b1-2)Man(a1-3)[Man(a1-6)]Man(b1-4)GlcNAc(b1-4)GlcNAc
# Outline: as §1
# [22] = biological target: Gal(b1-4)GlcNAc(b1-2)Man(a1-6)Man(b1-4)GlcNAc(b1-4)GlcNAc
# Outline: as §1
# [23] = biological target: Gal(b1-4)GlcNAc(b1-2)Man(a1-6)[GlcNAc(b1-2)Man(a1-3)]Man(b1-4)GlcNAc(b1-4)GlcNAc
# Outline: as §1
# [24] = biological target: Gal(b1-4)GlcNAc(b1-2)Man(a1-6)[Man(a1-3)]Man(b1-4)GlcNAc(b1-4)GlcNAc
# Outline: as §1
# [25] = biological target: Gal(b1-4)GlcNAc(b1-2)[Gal(b1-4)GlcNAc(b1-4)]Man(a1-3)[Gal(b1-4)GlcNAc(b1-2)Man(a1-6)]Man(b1-4)GlcNAc(b1-4)GlcNAc
# Outline: as §1
# [26] = biological target: Gal(b1-4)GlcNAc(b1-2)[Gal(b1-4)GlcNAc(b1-4)]Man(a1-3)[Gal(b1-4)GlcNAc(b1-2)[Gal(b1-4)GlcNAc(b1-6)]Man(a1-6)]Man(b1-4)GlcNAc(b1-4)GlcNAc
# Outline: as §1
# [27] = biological target: Gal(b1-4)GlcNAc(b1-2)[Gal(b1-4)GlcNAc(b1-4)]Man(a1-3)[GlcNAc(b1-4)][Gal(b1-4)GlcNAc(b1-2)Man(a1-6)]Man(b1-4)GlcNAc(b1-4)GlcNAc
# Outline: as §1
# [28] = biological target: Gal(b1-4)GlcNAc(b1-2)[Gal(b1-4)GlcNAc(b1-4)]Man(a1-3)[GlcNAc(b1-4)][Gal(b1-4)GlcNAc(b1-2)[Gal(b1-4)GlcNAc(b1-6)]Man(a1-6)]Man(b1-4)GlcNAc(b1-4)GlcNAc
# Outline: as §1
# [29] = biological target: Gal(b1-4)GlcNAc(b1-2)[Gal(b1-4)GlcNAc(b1-6)]Man(a1-6)[Gal(b1-4)GlcNAc(b1-2)Man(a1-3)]Man(b1-4)GlcNAc(b1-4)GlcNAc
# Outline: as §1
# [30] = biological target: Gal(b1-4)GlcNAc(b1-2)[Gal(b1-4)GlcNAc(b1-6)]Man(a1-6)[Gal(b1-4)GlcNAc(b1-2)Man(a1-3)]Man(b1-4)GlcNAc(b1-4)[Fuc(a1-6)]GlcNAc
# Outline: as §1
# [31] = biological target: Gal(b1-4)GlcNAc(b1-2)[Gal(b1-4)GlcNAc(b1-6)]Man(a1-6)[GlcNAc(b1-4)][Gal(b1-4)GlcNAc(b1-2)Man(a1-3)]Man(b1-4)GlcNAc(b1-4)GlcNAc
# Outline: as §1
# [32] = biological target: Gal(b1-4)GlcNAc(b1-2)[Gal(b1-4)GlcNAc(b1-6)]Man(a1-6)[GlcNAc(b1-4)][Gal(b1-4)GlcNAc(b1-2)[Gal(b1-4)GlcNAc(b1-4)]Man(a1-3)]Man(b1-4)GlcNAc(b1-4)[Fuc(a1-6)]GlcNAc
# Outline: as §1
# [33] = biological target: Gal(b1-4)GlcNAc(b1-3)Gal(b1-3)GalNAc
# Outline: as §1
# [34] = biological target: Gal(b1-4)GlcNAc(b1-3)Gal(b1-3)GlcNAc
# Outline: as §1
# [35] = biological target: Gal(b1-4)GlcNAc(b1-3)Gal(b1-4)Glc
# Outline: as §1
# [36] = biological target: Gal(b1-4)GlcNAc(b1-3)Gal(b1-4)GlcNAc
# Outline: as §1
# [37] = biological target: Gal(b1-4)GlcNAc(b1-3)Gal(b1-4)GlcNAc(b1-2)Man(a1-3)[Gal(b1-4)GlcNAc(b1-3)Gal(b1-4)GlcNAc(b1-2)Man(a1-6)]Man(b1-4)GlcNAc(b1-4)GlcNAc
# Outline: as §1
# [38] = biological target: Gal(b1-4)GlcNAc(b1-3)Gal(b1-4)GlcNAc(b1-2)Man(a1-3)[Gal(b1-4)GlcNAc(b1-3)Gal(b1-4)GlcNAc(b1-2)Man(a1-6)]Man(b1-4)GlcNAc(b1-4)[Fuc(a1-6)]GlcNAc
# Outline: as §1
# [39] = biological target: Gal(b1-4)GlcNAc(b1-3)Gal(b1-4)GlcNAc(b1-2)[Gal(b1-4)GlcNAc(b1-3)Gal(b1-4)GlcNAc(b1-6)]Man(a1-6)[Gal(b1-4)GlcNAc(b1-3)Gal(b1-4)GlcNAc(b1-2)Man(a1-3)]Man(b1-4)GlcNAc(b1-4)GlcNAc
# Outline: as §1
binder,measurement,setting,value
B1,glycan array binding signal (z-score),Gal(b1-3)GlcNAc6S,-0.151
same,glycan array binding signal (z-score),[1],-0.161
same,glycan array binding signal (z-score),[2],-0.06
same,glycan array binding signal (z-score),[3],0.915
same,glycan array binding signal (z-score),[4],0.008
same,glycan array binding signal (z-score),[5],-0.057
same,glycan array binding signal (z-score),[6],-0.166
same,glycan array binding signal (z-score),[7],0.092
same,glycan array binding signal (z-score),[8],-0.135
same,glycan array binding signal (z-score),[9],0.247
same,glycan array binding signal (z-score),[10],-0.18
same,glycan array binding signal (z-score),Gal(b1-4)Gal,-0.183
same,glycan array binding signal (z-score),[11],0.026
same,glycan array binding signal (z-score),[12],-0.183
same,glycan array binding signal (z-score),Gal(b1-4)Glc,-0.096
same,glycan array binding signal (z-score),Gal(b1-4)Glc6S,-0.062
same,glycan array binding signal (z-score),Gal(b1-4)GlcNAc,-0.106
same,glycan array binding signal (z-score),[13],-0.163
same,glycan array binding signal (z-score),Gal(b1-4)GlcNAc(b1-2)Man,-0.037
same,glycan array binding signal (z-score),[14],-0.143
same,glycan array binding signal (z-score),[15],-0.104
same,glycan array binding signal (z-score),[16],-0.13
same,glycan array binding signal (z-score),[17],-0.022
same,glycan array binding signal (z-score),[18],-0.123
same,glycan array binding signal (z-score),[19],-0.165
same,glycan array binding signal (z-score),[20],-0.12
same,glycan array binding signal (z-score),[21],-0.073
same,glycan array binding signal (z-score),[22],-0.011
same,glycan array binding signal (z-score),[23],-0.152
same,glycan array binding signal (z-score),[24],-0.142
same,glycan array binding signal (z-score),[25],-0.169
same,glycan array binding signal (z-score),[26],-0.162
same,glycan array binding signal (z-score),[27],-0.095
same,glycan array binding signal (z-score),[28],-0.177
same,glycan array binding signal (z-score),[29],-0.12
same,glycan array binding signal (z-score),[30],-0.103
same,glycan array binding signal (z-score),[31],-0.124
same,glycan array binding signal (z-score),[32],-0.148
same,glycan array binding signal (z-score),[33],-0.191
same,glycan array binding signal (z-score),[34],-0.116
same,glycan array binding signal (z-score),[35],1.67
same,glycan array binding signal (z-score),[36],-0.219
same,glycan array binding signal (z-score),[37],-0.002
same,glycan array binding signal (z-score),[38],-0.127
same,glycan array binding signal (z-score),[39],-0.014
